# In PubChem BioAssay AID1745853 (National Center for Advancing Translational Sciences (NCATS), 2022):
# “And” between values parts separate entries of the source, which are not always exact repeats. Equal values may be shown once. This is one part of the list. The main result of the screen is listed elsewhere. These columns were measured beside it and carry no call.
# Columns and labels:
# Test in all cases: Primary Screen for Target Class Profiling of Small Molecule Inhibitors of Methyltransferases
# [1] = target: Glycine N-methyltransferase (Homo sapiens) (UniProt Q14749); settings: purified enzyme, MTase-Glo SAH luminescence; measured here: GNMT inhibition; at 40 µM; stronger effect = lower value
# How it was run: (§1)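 Each enzyme was assayed with SAM and its substrate. SAH formation detected by MTase-Glo luminescence; single-point 40 uM screen[…].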
# [2] = target: Guanidinoacetate N-methyltransferase (Homo sapiens) (UniProt Q14353); settings: purified enzyme, MTase-Glo SAH luminescence; measured here: GAMT inhibition; at 40 µM; stronger effect = lower value
# How it was run: as §1
# [3] = target: Histamine N-methyltransferase (Homo sapiens) (UniProt P50135); settings: purified enzyme, MTase-Glo SAH luminescence; measured here: HNMT inhibition; at 40 µM; stronger effect = lower value
# How it was run: as §1
# [4] = target: Nicotinamide N-methyltransferase (Homo sapiens) (UniProt P40261); settings: purified enzyme, MTase-Glo SAH luminescence; measured here: NNMT inhibition; at 40 µM; stronger effect = lower value
# How it was run: as §1
# [5] = target: Phenylethanolamine N-methyltransferase (Homo sapiens) (UniProt P11086); settings: purified enzyme, MTase-Glo SAH luminescence; measured here: PNMT inhibition; at 40 µM; stronger effect = lower value
# How it was run: as §1
# On the % scale 0 is the no-effect control and ±100 the full control effect.
Compound,"activity change, negative = inhibition [1]","activity change, negative = inhibition [2]","activity change, negative = inhibition [3]","activity change, negative = inhibition [4]","activity change, negative = inhibition [5]"
CCOc1ccc(N(C(=O)c2ccc(OC)cc2)S(=O)(=O)c2ccc3c(c2)n(C)c(=O)n3C)cc1,-4.94%,-29.8%,8.45%,-19.2%,1.39%
COc1ccc(OC)c(S(=O)(=O)N2CCCCC2c2nc(-c3cccnc3)n[nH]2)c1 (stereo not given),5.62%,1.95%,1.3%,1.13%,-4.58%
CC1(C)CCCC2(C)c3c4c(c(=O)oc(=O)c3=CCC12)=CCC1C(C)(C)CCCC41C (stereo not given),4.75%,5.82%,12.3%,-10.7%,7.2%
Cc1cc2c(cc3n2CC(C)(C(=O)NC2CCCCCCC2)N(Cc2cccc(Cl)c2)C3=O)o1 (stereo not given),-7.39%,0.75%,-7.76%,-12.5%,-7.68%
CC(C)Cc1nnc(NC(=O)C[C@H]2NC(=O)c3ccccc3NC2=O)s1,-27.5%,-8.08%,-2.15%,-14%,-1.57%
COCC(=O)O[C@]1(CCN(C)CCCc2nc3ccccc3[nH]2)CCc2cc(F)ccc2[C@@H]1C(C)C,1.95%,14.7%,-0.753%,-8.31%,3.05%
O=C1C(N2CCN(Cc3ccc[nH]3)CC2)CCN1CCc1ccccc1 (stereo not given),-10.8%,-3.86%,-2.31%,-0.168%,-8.21%
CC(=O)Nc1cccc(-c2ccnc(-c3nnc(C)n3Cc3ccccc3)c2)c1,-9.11%,-1.72%,-9.87%,-16.5%,-0.891%
CN1C(=O)c2cc(C(=O)NCc3cccs3)nn2CC1(C)C(=O)NC1CCCCC1 (stereo not given),6.6%,0%,3.72%,4.75%,2.65%
C/C(=C\C(=O)C[C@@]12C(=O)O[C@]3(C)CC[C@H]1C[C@H]23)C(N)=O,1.99%,5.63%,8.31%,-6.77%,2.06%
O=S(=O)(c1ccccc1)c1nnn2c1nc(N1CCOCC1)c1ccccc12,2.63%,0%,6.14%,5.97%,1.59%
O=C(c1ccccc1)N1CC2(CCNC2)OCc2ccccc21 (stereo not given),-2.17%,-4.7%,-4.19%,-2.17%,-3.41%
CC(CNc1nc2c(S(=O)(=O)c3ccccc3)nnn2c2ccccc12)c1ccccc1 (stereo not given),-0.474%,0%,4.95%,0.47%,1.18%
O=S(=O)(NCC1(COc2cnccn2)C[C@@H](O)[C@@H](O)C1)c1ccc(F)cc1 (stereo not given in full),-7.22%,-6.38%,-26.5%,-24%,-5.02%
Cc1ccc(N2C(=O)c3cc4occc4n3CC2(C)C(=O)NC2CCCCCC2)cc1C (stereo not given),-2.89%,0%,6.28%,-4.7%,-1.17%
CC(=O)NC[C@H]1OC[C@@H](NCC(C)(C)C)[C@@H]1O,-1.54%,-2.83%,-1.88%,-2.87%,-4.53%
C[C@@H]1CN(C(=O)NCC2CCCCC2)CC[C@@]1(O)C1CCOCC1,-5.25%,-9.12%,-5.86%,-11.6%,-5.59%
Cc1nc2cnccn2c1C(=O)N1CCC(C#N)CC1,-3.49%,-5.42%,-1.98%,-8.89%,-8.73%
O=C(/C=C/C=C/c1ccc2c(c1)OCO2)N1CCCCC1,-0.55%,-0.572%,-6.33%,-17%,-3.11%
C=Cc1ccc(Cn2nc3n(CCC)c(=O)c4ccc(Cl)cc4n3c2=O)cc1,-4.11%,2.42%,3.16%,-1.06%,0.657%
Cc1ccc2nc(C(NC(=O)C3CCN(CC(N)=O)CC3)C(C)C)[nH]c2c1 (stereo not given),-2.38%,-1.83%,-3.13%,-8.29%,-6.71%
O=c1c2ccccc2nc2n1CCc1c-2[nH]c2ccccc12,-17.6% and -9.51%,-1.8% and 0.798%,-3.67% and -5.5%,-16.6% and -14.9%,-8.5% and -5.99%
CCCC1c2cccn2CCN1C(=O)Nc1ccccc1OCC (stereo not given),0.36%,2.65%,-16%,5.96%,6.54%
CC1CCC(NC(=O)C2(C)Cn3c(nc4ccccc43)C(=O)N2Cc2ccco2)CC1 (stereo not given),-4.74%,1.43%,-5.18%,-6.7%,-6.17%
Cc1cccc(Cn2nc3n(CCC(C)C)c(=O)c4ccc(C(=O)NC5CCCC5)cc4n3c2=O)c1,2.66%,5.7%,6.91%,-0.978%,1.98%
CCCn1cnc2c1c(=O)n(CCCCC(C)=O)c(=O)n2C,-1.36%,5.25%,1.62%,-5.97%,7.29%
COc1cccc(-c2noc(CN3CCC(c4nc(-c5cccn5C)no4)C3)n2)c1OC (stereo not given),-8.47%,-0.07%,-0.478%,-12.6%,-1.82%
CCOc1ccc(N2C(=O)c3c(C(=O)OC)ncn3CC2(C)C(=O)NC2CCCC2)cc1 (stereo not given),0.398%,-1.51%,-7.19%,-2.33%,-3.52%
O=C(C[C@@H]1C[C@H]2O[C@H](CNC3Cc4ccccc4C3)[C@@H](O)[C@H]2O1)N1CCC(F)(F)C1,-0.416%,0.972%,2.28%,-7.24%,7.42%
O=C(Nc1ccccc1F)N1CC(Oc2cccc(-c3nc(-c4ccccc4)no3)c2)C1,-5.44%,-12%,-3.48%,-4.96%,-4.92%
